Results as given in the supplement of paper PMC6206098.
± gives the uncertainty stated by the source. Shown are siRNA guide strands that differ only in the seed, positions 2 to 7.

Columns and labels:
HeyA8 = assay: cell viability relative to lipid-only control; higher = less toxic; settings: concentration: 10 nM; 96 h; Homo sapiens
H460 = assay: as above; settings: concentration: 10 nM; 96 h; Homo sapiens
M565 = assay: as above; settings: concentration: 10 nM; 96 h; Mus musculus
3LL = assay: cell viability relative to siNT1 control; HeyA8 human ovarian and H460 human lung cancer; M565 mouse liver and 3LL mouse lung cancer; siNT1 is a non-toxic control siRNA; higher = less toxic; settings: concentration: 10 nM; 96 h; Mus musculus
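Wherever cell viability relative to lipid-only control is given: reverse lipid transfection in 384-well plates, in triplicate, of duplexes on a non-toxic 19mer backbone with passenger strand 2′-O-methylated at positions 1 and 2, luminescence viability read-out.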
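Wherever cell viability relative to siNT1 control is given: Luminescence-based viability of cells reverse transfected in 384-well plates with lipid-complexed siRNAs built on a non-toxic 19mer backbone whose passenger strand carries 2′-O-methyl groups at positions 1 and 2, triplicates.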

Sequence	cell viability (HeyA8) [%]	cell viability (H460) [%]	cell viability (M565) [%]	cell viability (3LL) [%]
UUCGUUGACAUGUAAACCAAA	88.9 ± 10	74.9 ± 5	78.7 ± 12	99.3 ± 24
UUCGUUUACAUGUAAACCAAA	93.4 ± 9.8	78.2 ± 23	101 ± 3.9	86.9 ± 14
UUCUAAAACAUGUAAACCAAA	103 ± 9.2	66.4 ± 8.4	89.9 ± 13	98.5 ± 9.1
UUCUAACACAUGUAAACCAAA	73.2 ± 2.6	78.5 ± 2.6	99.9 ± 15	103 ± 7.4
UUCUAAGACAUGUAAACCAAA	102 ± 7	74.5 ± 11	94.6 ± 16	96.4 ± 14
UUCUAAUACAUGUAAACCAAA	95.5 ± 7.4	79.9 ± 11	81 ± 16	99.4 ± 8.2
UUCUACAACAUGUAAACCAAA	104 ± 14	79.4 ± 12	72.3 ± 9.7	80.9 ± 5.6
UUCUACCACAUGUAAACCAAA	32.4 ± 2.9	31.4 ± 2.6	10.6 ± 0.42	25.2 ± 1.4
UUCUACGACAUGUAAACCAAA	94.8 ± 7.2	81.2 ± 16	87.3 ± 19	103 ± 2.4
UUCUACUACAUGUAAACCAAA	67 ± 2.6	40.2 ± 1.5	37.2 ± 6.2	27.4 ± 3.6
UUCUAGAACAUGUAAACCAAA	97.7 ± 4	50.3 ± 3.2	74.3 ± 17	89.5 ± 9.5
UUCUAGCACAUGUAAACCAAA	35.7 ± 5	37.8 ± 7	53.4 ± 7.6	26.5 ± 7.5
UUCUAGGACAUGUAAACCAAA	82.3 ± 3.2	39.7 ± 1.5	93.1 ± 4.6	62.1 ± 12
UUCUAGUACAUGUAAACCAAA	60.2 ± 1.6	49.4 ± 5	21.8 ± 4.8	41.7 ± 10
UUCUAUAACAUGUAAACCAAA	97.5 ± 2.3	64.6 ± 7.3	81.6 ± 12	97 ± 9.1
UUCUAUCACAUGUAAACCAAA	67.2 ± 3.1	48.4 ± 5.1	53 ± 13	69.2 ± 9
UUCUAUGACAUGUAAACCAAA	91.6 ± 7.2	55.8 ± 5.5	82.3 ± 9.8	99.6 ± 5.5
UUCUAUUACAUGUAAACCAAA	81 ± 6.4	59.1 ± 4.9	48.2 ± 8.8	97.6 ± 9.6
UUCUCAAACAUGUAAACCAAA	101 ± 4	51.9 ± 4.8	90.2 ± 16	89.8 ± 13
UUCUCACACAUGUAAACCAAA	65.9 ± 2.5	52.1 ± 6.7	33.6 ± 3	73.6 ± 9

Sequence	cell viability (HeyA8) [%]	cell viability (H460) [%]	cell viability (M565) [%]	cell viability (3LL) [%]
UUCUCAGACAUGUAAACCAAA	86.2 ± 1.7	40.4 ± 2.4	67.2 ± 14	91 ± 2.9
UUCUCAUACAUGUAAACCAAA	91 ± 9	53 ± 10	76.8 ± 6.5	85.4 ± 7.5
UUCUCCAACAUGUAAACCAAA	87.9 ± 14	56 ± 12	88.8 ± 6.7	78.9 ± 2.9
UUCUCCCACAUGUAAACCAAA	52.6 ± 2.1	37.3 ± 4.5	85.8 ± 10	12.4 ± 3.3
UUCUCCGACAUGUAAACCAAA	90.8 ± 6.7	64.9 ± 9.3	57.5 ± 6.3	64.9 ± 3.9
UUCUCCUACAUGUAAACCAAA	52.3 ± 3.1	45.9 ± 7.1	41.9 ± 7.5	24 ± 4.4
UUCUCGAACAUGUAAACCAAA	94.4 ± 4.3	62.7 ± 5.7	84.5 ± 12	86.5 ± 8.7
UUCUCGCACAUGUAAACCAAA	67.3 ± 12	47.7 ± 3.4	50.5 ± 1.6	50.1 ± 2.6
UUCUCGGACAUGUAAACCAAA	87.9 ± 5.1	59.8 ± 5.9	74.9 ± 4.4	78.4 ± 4.1
UUCUCGUACAUGUAAACCAAA	73.1 ± 1.7	59.5 ± 6.3	69.4 ± 5.1	61 ± 9.8
UUCUCUAACAUGUAAACCAAA	99.2 ± 9.4	56.1 ± 7.5	89.4 ± 11	104 ± 10
UUCUCUCACAUGUAAACCAAA	71.4 ± 6.1	51.1 ± 11	57.3 ± 6.5	36.3 ± 10
UUCUCUGACAUGUAAACCAAA	93 ± 12	69.2 ± 9.3	73.9 ± 6.8	84.8 ± 2.4
UUCUCUUACAUGUAAACCAAA	78.3 ± 5.2	55.17 ± 0.55	79.5 ± 5.1	88 ± 8.8
UUCUGAAACAUGUAAACCAAA	89.46 ± 0.46	73.5 ± 7.8	97.6 ± 15	101 ± 4.3
UUCUGACACAUGUAAACCAAA	51.1 ± 3.2	43.1 ± 7.6	12.4 ± 1.9	21.2 ± 3.6
UUCUGAGACAUGUAAACCAAA	96 ± 3.2	60.8 ± 4.4	82.2 ± 5	72.5 ± 6.6
UUCUGAUACAUGUAAACCAAA	63.5 ± 11	71.5 ± 4.7	55.7 ± 4.5	35.1 ± 6
UUCUGCAACAUGUAAACCAAA	87 ± 5.8	52.9 ± 6.8	57.7 ± 5.4	30.1 ± 7.7
UUCUGCCACAUGUAAACCAAA	17.6 ± 1	22.5 ± 0.24	3.26 ± 1.4	1.94 ± 1.2

Sequence	cell viability (HeyA8) [%]	cell viability (H460) [%]	cell viability (M565) [%]	cell viability (3LL) [%]
UUCUGCGACAUGUAAACCAAA	88.4 ± 3.7	62.6 ± 6.1	56.5 ± 2.3	49 ± 3.7
UUCUGCUACAUGUAAACCAAA	63.1 ± 5.7	72.2 ± 14	50.4 ± 4.4	6.11 ± 0.95
UUCUGGAACAUGUAAACCAAA	85.1 ± 4.5	69.3 ± 9.3	29 ± 3	47.9 ± 1
UUCUGGCACAUGUAAACCAAA	24.7 ± 4.9	22.1 ± 3.1	30 ± 9.2	8.9 ± 0.63
UUCUGGGACAUGUAAACCAAA	3.2 ± 0.26	57.2 ± 6.2	16.5 ± 2.1	2.3 ± 0.19
UUCUGGUACAUGUAAACCAAA	21.1 ± 2	30.4 ± 4.2	20.5 ± 0.41	39.3 ± 5.1
UUCUGUAACAUGUAAACCAAA	90 ± 12	66.8 ± 12	52.9 ± 5.3	76.2 ± 0.66
UUCUGUCACAUGUAAACCAAA	65.4 ± 7.5	41.4 ± 1.8	26.2 ± 5.2	37.9 ± 4.1
UUCUGUGACAUGUAAACCAAA	80.9 ± 6.4	69.8 ± 11	48.9 ± 13	49.2 ± 11
UUCUGUUACAUGUAAACCAAA	71.4 ± 6	51.9 ± 7.3	23.7 ± 5.8	24.4 ± 8.1
UUCUUAAACAUGUAAACCAAA	96.3 ± 7.6	61.8 ± 11	102 ± 19	97.6 ± 7.9
UUCUUACACAUGUAAACCAAA	58.6 ± 5.5	54.2 ± 11	103 ± 12	96.2 ± 13
UUCUUAGACAUGUAAACCAAA	101 ± 10	77.8 ± 12	78.5 ± 20	88.8 ± 8.4
UUCUUAUACAUGUAAACCAAA	84.7 ± 6.5	62.3 ± 3.7	94.2 ± 14	75.8 ± 13
UUCUUCAACAUGUAAACCAAA	72.6 ± 2.8	62.6 ± 6.5	132 ± 28	62.1 ± 12
UUCUUCCACAUGUAAACCAAA	26.6 ± 3.1	29.7 ± 3	103 ± 24	50.7 ± 3.9
UUCUUCGACAUGUAAACCAAA	76.5 ± 1.4	51.1 ± 9.8	120 ± 25	85.5 ± 4.7
UUCUUCUACAUGUAAACCAAA	45.6 ± 2.4	38 ± 0.89	106 ± 21	69.2 ± 9.2
UUCUUGAACAUGUAAACCAAA	80.2 ± 4.6	66.2 ± 2.9	106 ± 33	80.1 ± 6.6
UUCUUGCACAUGUAAACCAAA	21.8 ± 0.4	77.9 ± 10	36.7 ± 5.1	70.5 ± 2.9
